Structures are written as SMILES. Screen size: about 1,200 compounds; about 10 (0.8%) were called active. Inconclusive results (about 4%) are left out. Calls follow the shape of the dose curve; as a rule, active = well fitted inhibition curve with a large enough effect; inconclusive = small, poorly fitted or top-dose-only effect; inactive = no such curve, though single readings can be large or run the other way. This is one part of the list.
% is scaled to controls: 0 for no effect and ±100 for the full control effect.

The assay can be described thus: qHTS Assay to Find Inhibitors of Chronic Active B-Cell Receptor Signaling: Hit Validation in OCI-Ly3 Assay. The settings on record: OCI-Ly3 IkB-luciferase reporter, Chroma-Glo luminescence, 4 h; at 46.1 µM (top of the series). The source says: Diffuse large B-cell lymphoma (DLBCL) is the most common category of non-Hodgkin lymphoma, with ~20,000 new cases per year in the United States. DLBCL should be regarded as a collection of different neoplasms. Microarray gene expression analysis has defined two principal types of DLBCL, named for their similarity to normal B cell stages or activation states: a germinal center B-cell (GCB) type, and an activated B-cell (ABC) type. In ABC-DLBCL, a constitutive high-level activity of the NF-kappaB family of transcription factors has been observed (1) and NF-kappaB target genes are more highly expressed in ABC primary tumors than in GCB tumors. Functional studies have shown a constitutive high-level activity of the IkappaB (inhibitor of kappa-B) kinase (IKK) complex. […] Further analysis of DLBCL primary tumors for NF-kappaB target gene expression imply that although CARD11 is required for constitutive IKK activity in all ABC-DLBCL lines, mutations in CARD11 may be the root cause of IKK activation only in lines or tumors with such mutations. In other words, CARD11 mutations may explain NF-kappaB activation in only 10% of ABC-DLBCL cases. […] This process has been termed 'chronic active BCR signaling' (CABS). The goal of this screen is to find small-molecule inhibitors of the CABS pathway found in ABC-DLBCL lines using a cell-based assay that measures IkappaBalpa stability, which has already been extensively validated in the OCI-Ly3 line (PubChem AID:445; REF: 4). […] Hits from the primary screen were tested in this selectivity secondary assay. NIH Molecular Libraries Probe Production Network [MLPCN] NIH Chemical Genomics Center [NCGC] MLPCN Grant: R03 DA031086 PI Name: Dr. R. Eric Davis
Cells were seeded in 1536-well plates at 5000 cells/3ul in IMDM medium containing 0.5% FBS, w/o phenol red, L-glutamine, 25 mM HEPES, 3 mg/ml sodium bicarbonate. After centrifugation for 1 min. at 1000 rpm, 23 nl of compounds or DMSO were delivered to each well using a pin tool. Then 1ul 80ng/ml doxycycline was dispensed into white solid 1536-well plates and the plates were incubated at 37C/5% C02 in a cell incubator for 4 hrs. Then 4 ul Chroma-Glo luminescent substrate mix (Promega) was added to each well. The plate was incubated at R.T. for 10-15 min. The plates were measured on a ViewLux plate reader for green luminescence (540/20 nm filter) and red luminescence (618/8 nm filter). The green and red luminescent signals were corrected for red and green luminescence filter overlap using previously determined filter calibration constants (determined using the procedure outlined in the Promega Technical Manual). The %Activity was determined from the ratio of corrected green/red luminescent values. Green luminescent and ratio %Activity was determined by normalizing to the difference in signal between basal cells (0% Activity) and cells incubated with 10 uM of the proteasome inhibitor MG-132 (100% Activity). Red luminescent %Activity was normalized to the difference between red luminesence in basal cells (0%Activity) and zero luminescence (-100% Activity). Concentration-response curves were fitted to the signals arising from the green luminescence (I-kappa-B-alpha-luciferase fusion; IkB-luc) and the red luminescence (unfused luciferase; luc) as well as the calculated ratio. The concentration-effect curves were then classified based on curve quality (r2), response magnitude and degree of measured activity. Compounds were then categorized based on their concentration-response curves for all three datasets (Ikb-luc, luc and ratio).
(In general: Quantitative high-throughput screening tests each substance at several concentrations.)
For `COc1cc2c3cc1Oc1cc(ccc1O)C[C@@H]1c4c(cc(OC)c(O)c4Oc4ccc(cc4)C[C@H]3N(C)CC2)CCN1C`, the activity change, negative = inhibition was inactive: 1.05%.
The figure for `CC(C)CCCn1c(O)c(/C=C2/C=CC=N2)c(=O)[nH]c1=O` is inactive: -0.841%.
`O=C(NC1CCCCC1)Oc1cc2oc(=O)sc2cc1Cl`: the activity change, negative = inhibition is inactive: -9.28%.
Turning to `CCCCOCCCn1c(N)c(C(=O)OCCOC)c2nc3ccccc3nc21`, the activity change, negative = inhibition was inactive: -2.82%.
Next, `CCc1ccccc1N1C(=O)/C(=C/c2ccc(N3CCN(C)CC3)o2)C(=O)NC1=S`: inactive: -0.121%; `COc1cc(C2c3cc4c(cc3CC3COC(=O)C32)OCO4)cc(OC)c1OC` (stereo unspecified): inactive: -1.42%.
Next, `COc1cc(/C=C/[N+](=O)[O-])ccc1O`: inactive: 0.135%; `CN(C)C(=S)SSC(=S)N(C)C`: inactive: -12.9%.
Turning to `CCCC[C@@H](C)C[C@@H](C)C(=O)N(C)[C@@H](CC(C)C)C(=O)N[C@H](C(=O)N(C)[C@H](C(=O)N1C[C@@H](O)C[C@H]1C(=O)N1C(=O)C=C[C@@H]1C)C(C)C)C(C)OC(C)=O` (stereo partly specified), the activity change, negative = inhibition is inactive: -0.338%.
Next, `CCNC(=O)[C@H]1O[C@@H](n2cnc3c(N)ncnc32)[C@H](O)[C@@H]1O`: inactive: -1.68%; `C/C(=N\N1CCCCC1)c1c(O)[nH]c(=O)[nH]c1=O`: inactive: 0.0656%; `COc1ccc(C=C2C(=O)N(C)C(=O)N(C)C2=O)cc1COc1ccc(NC(C)=O)cc1`: inactive: 0.249%.
The figure for `CC[C@]12CC[C@H](O)CC1=CCC1C2CC[C@]2(C)C(=O)CCC12` (stereo partly specified) is inactive: -0.803%.
The figure for `COc1ccc(Cc2nccc3cc(OC)c(OC)cc23)cc1OC` is inactive: -0.352%; for `O=C1C(=O)c2cccc3cccc1c23` it is inactive: -20.7%.
For `COc1ccc(-c2nn(CCC#N)cc2C(=O)Nc2ccc(C(C)=O)cc2)cc1[N+](=O)[O-]`, the activity change, negative = inhibition is inactive: -0.983%.
The figure for `C#CCOc1cc(C2C3=C(COC3=O)Nc3cc4c(cc32)OCO4)ccc1OC` (stereo unspecified) is inactive: -2.5%; for `CCC(=NCCC(c1ccccc1)c1ccccc1)c1c(O)[nH]c(=O)[nH]c1=O` it is inactive: -2.95%; for `O=c1c2ccccc2[se]n1-c1ccccc1` it is inactive: 22.5%.
The figure for `C=CC[C@@H](CC/C=C/C=C/CC/C=C\[C@@H]1CSC([C@@H]2C[C@@H]2C)=N1)OC` is inactive: -12.7%.
`COc1cc2c(c(OC)c1OC)-c1ccc(O)cc1[C@@H](NC(C)=O)CC2`: the activity change, negative = inhibition was inactive: -3.18%.
Next, `CN1C(=O)CN=C(c2ccc(Cl)cc2)c2cc(Cl)ccc21`: inactive: -3.48%.
Next, `COc1ccc(C(=O)Oc2cccc3cccnc23)cc1S(=O)(=O)N1CCOCC1`: inactive: -0.414%.
As for `COc1cc2c(c(OC)c1OC)-c1ccc(O)c(=O)cc1C(NC(C)=O)CC2` (stereo unspecified), the activity change, negative = inhibition was inactive: -3.84%.
The figure for `Cc1cc(C)c(C(=O)CN2CCOCC2)c(C)c1` is inactive: -0.639%; for `O=c1c2ccccc2nc(/C=C/c2ccc([N+](=O)[O-])o2)n1-c1ccc(O)cc1` it is inactive: 69.1%.
